Laboratory results taken from article PMC7540527, “Synthesis of Antiviral Perfluoroalkyl Derivatives of Teicoplanin and Vancomycin” (Chemmedchem, 2020).
≈ marks a conversion by molar mass, not a printed value.

Legend:
S. epidermidis mecA = assay: microbe, parasite or virus in culture; assay type: cell-based, Staphylococcus epidermidis; conditions: for MIC: Staphylococcus epidermidis, read-out: MIC S. epidermidis mecA
Experimental: Compounds 1 b,40 8,29 9 30 and 14 18 were synthesized according to the literature. Compound 1 a was purchased from Sigma‐Aldrich, nonafluoro‐1‐iodobutane from TCI and heptadecafluoro‐1‐iodooctane from Alfa Aesar. TLC was performed on Kieselgel 60 F254 (Merck) with detection either by immersing into ammonium molybdate‐sulfuric acid solution followed by heating or by using Pauly's reagent for detection. Flash column chromatography was performed using Silica gel 60 (Merck 0.040–0.063 mm). The photoinitiated reactions were carried out in a borosilicate vessel by irradiation with a Hg lamp giving maximum emission at 365 nm. The ^1H NMR (500, 400 and 360 MHz) ^13C NMR (125, 100 and 90 MHz) and 2D NMR spectra were recorded with a Bruker DRX‐360, Bruker DRX‐400 and Bruker Avance II 500 spectrometer at 298 or 300 K. For DOSY (Diffusion Ordered Spectroscopy) experiments, Bruker AVANCE‐II, 500 MHz spectrometer was applied, with manufacturer‘s “ledbpgp2 s” pulse sequence. Chemical shifts are referenced to Me4Si (0.00 ppm for ^1H) and to the solvent residual signals. MALDI‐TOF MS analyses of the compounds were carried out in the positive reflectron mode (20 kV) using a BIFLEX III mass spectrometer (Bruker) equipped with delayed‐ion extraction. A nitrogen laser (337 nm, 3 ns pulse width, 106–107 W/cm^2) operating at 4 Hz was applied to produce laser desorption. 2,5‐Dihydroxybenzoic acid (DHB) was used as matrix and F3CCOONa as cationizing agent in DMF. ESI‐QTOF MS measurements were carried out on a maXis II UHR ESI‐QTOF MS instrument (Bruker), in positive ionization mode. The following parameters were applied for the electrospray ion source: capillary voltage: 3.5 kV; end plate offset: 500 V; nebulizer pressure: 0.8 bar; dry gas temperature: 200 °C and dry gas flow rate: 4.5 L/min. Constant background correction was applied for each spectrum, the background was recorded before each sample by injecting the blank sample matrix (solvent). Na‐formate calibrant was injected after each sample, which enabled internal calibration during data evaluation. Mass spectra were recorded by otofControl version 4.1 (build: 3.5, Bruker) and processed by Compass DataAnalysis version 4.4 (build: 200.55.4). The antibacterial evaluations were carried out as it was described in our previous publication.27b

[1] = assay type: physicochemical
Experimental: In addition to NMR structure validation (see the Supporting Information, including ^13C HSQC, HMBC, ^13C and ^19F spectra and spectral assignments) we tested compound 17 for possible oligomerization. […] About 20 mg of sample 17 was dissolved in 500 μL MeOD and measured at 300 K temperature. Spectra were recorded with 32 or 64 linear gradient steps and evaluated with topspin 2.1 software using inverse Laplace transformation to obtain diffusion domain. These experiments yielded MW between 7–8 kDa when referenced to internal TMS. (Figure S1). However, in repeated measurements with ∼3 mg of 17 dissolved in MeOD and referenced to internal β‐CD, DOSY yielded only 2.4 kDa mass for 17, that is closer to monomeric state (Figure S2). In control DOSY experiments of teicoplanin and vancomycin dissolved in [D6]DMSO with β‐CD mass reference, DOSY yielded the monomeric molecular masses as expected.

Compound | MIC (S. epidermidis mecA) | MIC S. epidermidis mecA (S. epidermidis mecA; mecA gene expression) | Solubility in water [1]
CN[C@H](CC(C)C)C(=O)N[C@H]1C(=O)N[C@@H](CC(N)=O)C(=O)N[C@H]2C(=O)N[C@H]3C(=O)N[C@H](C(=O)N[C@H](C(=O)O)c4cc(O)cc(O)c4-c4cc3ccc4O)[C@H](O)c3ccc(c(Cl)c3)Oc3cc2cc(c3O[C@@H]2O[C@H](CO)[C@@H](O)[C@H](O)[C@H]2O[C@H]2C[C@](C)(N)[C@H](O)[C@H](C)O2)Oc2ccc(cc2Cl)[C@H]1O [VAN, vancomycin] | 4 µg/mL (≈ 2.76 µM) | – | –
CC(C)C[C@H](C(=O)N[C@H]1C(=O)N[C@@H](CC(N)=O)C(=O)N[C@H]2C(=O)N[C@H]3C(=O)N[C@H](C(=O)N[C@H](C(=O)O)c4cc(O)cc(O)c4-c4cc3ccc4O)[C@H](O)c3ccc(c(Cl)c3)Oc3cc2cc(c3O)Oc2ccc(cc2Cl)[C@H]1O)n1cc(COCCOCCOCCOCCOCCCC(F)(F)C(F)(F)C(F)(F)C(F)(F)C(F)(F)C(F)(F)C(F)(F)C(F)(F)F)nn1 [Compound 13] | 8 µg/mL (≈ 4.33 µM) | – | –
CC(C)C[C@H](C(=O)N[C@H]1C(=O)N[C@@H](CC(N)=O)C(=O)N[C@H]2C(=O)N[C@H]3C(=O)N[C@H](C(=O)N[C@H](C(=O)O)c4cc(O)cc(O)c4-c4cc3ccc4O)[C@H](O)c3ccc(c(Cl)c3)Oc3cc2cc(c3O)Oc2ccc(cc2Cl)[C@H]1O)n1cc(COCCOCCOCCOCCOCCCC(F)(F)C(F)(F)C(F)(F)C(F)(F)F)nn1 [Compound 12] | 8 µg/mL (≈ 4.85 µM) | – | –
teicoplanin [reference compound] | – | 16 µg/mL | –
CC(=O)NC1C(OC2c3ccc(c(Cl)c3)Oc3cc4cc(c3O)Oc3ccc(cc3Cl)CC3NC(=O)C(n5cc(COCCOCCCC(F)(F)C(F)(F)C(F)(F)C(F)(F)F)nn5)c5ccc(O)c(c5)Oc5cc(O)cc(c5)C(NC3=O)C(=O)NC4C(=O)NC3C(=O)NC2C(=O)NC(C(=O)O)c2cc(O)cc(O)c2-c2cc3ccc2O)OC(CO)C(O)C1O (stereo not drawn) [Compound 15] | 0.5 µg/mL (≈ 0.28 µM) | – | –
CC(=O)NC1C(OC2c3ccc(c(Cl)c3)Oc3cc4cc(c3O)Oc3ccc(cc3Cl)CC3NC(=O)C(n5cc(COCCOCCOCCOCCOCCCC(F)(F)C(F)(F)C(F)(F)C(F)(F)C(F)(F)C(F)(F)C(F)(F)C(F)(F)F)nn5)c5ccc(O)c(c5)Oc5cc(O)cc(c5)C(NC3=O)C(=O)NC4C(=O)NC3C(=O)NC2C(=O)NC(C(=O)O)c2cc(O)cc(O)c2-c2cc3ccc2O)OC(CO)C(O)C1O (stereo not drawn) [Compound 18] | 8 µg/mL (≈ 3.77 µM) | – | –
CC(=O)NC1C(OC2c3ccc(c(Cl)c3)Oc3cc4cc(c3O)Oc3ccc(cc3Cl)CC3NC(=O)C(n5cc(COCCOCCOCCOCCOCCCC(F)(F)C(F)(F)C(F)(F)C(F)(F)F)nn5)c5ccc(O)c(c5)Oc5cc(O)cc(c5)C(NC3=O)C(=O)NC4C(=O)NC3C(=O)NC2C(=O)NC(C(=O)O)c2cc(O)cc(O)c2-c2cc3ccc2O)OC(CO)C(O)C1O (stereo not drawn) [Compound 16] | 0.5 µg/mL (≈ 0.26 µM) | – | –
CC(=O)NC1C(OC2c3ccc(c(Cl)c3)Oc3cc4cc(c3O)Oc3ccc(cc3Cl)CC3NC(=O)C(n5cc(COCCOCCCC(F)(F)C(F)(F)C(F)(F)C(F)(F)C(F)(F)C(F)(F)C(F)(F)C(F)(F)F)nn5)c5ccc(O)c(c5)Oc5cc(O)cc(c5)C(NC3=O)C(=O)NC4C(=O)NC3C(=O)NC2C(=O)NC(C(=O)O)c2cc(O)cc(O)c2-c2cc3ccc2O)OC(CO)C(O)C1O (stereo not drawn) [Compound 17] | 256 µg/mL (≈ 129 µM) | – | not soluble in water
